Laboratory results taken from publication PMC4336329 (PLoS ONE, 2015).
Among all 310,000 compounds or so, about 14,000 (4.5%) showed an effect of 50% or more. Effects have a minus sign here. The list shows a part of the results.

molecular target: human ether-à-go-go-related gene (hERG) potassium channel (human, UniProt Q12809); experiment: primary screen, population patch clamp on CHO cells stably expressing hERG
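Also: peak tail current of the secondary pulse compared with the same well before compound.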

human ether-à-go-go-related gene (hERG) potassium channel, sequence (Q12809 whole entry, looked up): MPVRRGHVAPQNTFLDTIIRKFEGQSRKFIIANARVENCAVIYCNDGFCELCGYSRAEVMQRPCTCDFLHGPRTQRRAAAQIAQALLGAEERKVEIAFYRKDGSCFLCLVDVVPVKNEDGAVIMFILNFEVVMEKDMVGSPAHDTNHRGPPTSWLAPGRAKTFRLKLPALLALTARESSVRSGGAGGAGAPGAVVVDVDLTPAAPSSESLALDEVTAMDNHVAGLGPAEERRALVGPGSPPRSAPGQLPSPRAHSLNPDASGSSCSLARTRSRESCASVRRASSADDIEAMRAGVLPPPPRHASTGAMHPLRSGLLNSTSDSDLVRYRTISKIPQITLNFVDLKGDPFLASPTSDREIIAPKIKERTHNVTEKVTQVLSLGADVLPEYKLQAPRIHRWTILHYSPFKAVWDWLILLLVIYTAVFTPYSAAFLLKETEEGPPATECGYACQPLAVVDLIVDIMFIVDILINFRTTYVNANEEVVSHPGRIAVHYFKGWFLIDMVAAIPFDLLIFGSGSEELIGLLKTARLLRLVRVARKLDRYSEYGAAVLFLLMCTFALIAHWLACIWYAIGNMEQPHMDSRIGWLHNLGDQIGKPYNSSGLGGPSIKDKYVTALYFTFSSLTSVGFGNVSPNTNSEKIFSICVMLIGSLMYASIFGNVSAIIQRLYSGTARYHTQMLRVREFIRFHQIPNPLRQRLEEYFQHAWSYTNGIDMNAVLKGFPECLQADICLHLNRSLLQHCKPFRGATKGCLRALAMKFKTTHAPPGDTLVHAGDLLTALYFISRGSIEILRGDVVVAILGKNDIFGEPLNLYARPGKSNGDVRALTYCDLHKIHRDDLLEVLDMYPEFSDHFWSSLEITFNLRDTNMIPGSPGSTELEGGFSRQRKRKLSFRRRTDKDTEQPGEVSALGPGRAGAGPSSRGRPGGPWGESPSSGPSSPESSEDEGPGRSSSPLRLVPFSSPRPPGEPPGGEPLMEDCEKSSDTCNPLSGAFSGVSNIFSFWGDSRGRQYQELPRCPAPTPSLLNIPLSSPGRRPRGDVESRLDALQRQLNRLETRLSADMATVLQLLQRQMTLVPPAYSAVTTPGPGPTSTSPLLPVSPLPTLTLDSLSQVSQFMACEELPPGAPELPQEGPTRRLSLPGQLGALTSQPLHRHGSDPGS

Row | Compound | hERG current change (%, negative = inhibition) at 10uM [%]
1 | Cc1cc(OCC(=O)Nc2cnn(CCCC(=O)O)c2)ccc1Cl | 18
2 | Cc1ccc(Oc2c(C)nc(-c3ccccc3)[nH]c2=O)cc1 | -14.1
3 | CS(=O)(=O)c1ccc(Cl)c(C(=O)O)c1 | 11
4 | Cc1cccc(NC2=NCCCS2)c1 | 6.3
5 | O=C(C(Sc1ccccc1)c1ccccc1)N1CCN(c2ccccc2F)CC1 (centres unmarked) | -3.71
6 | O=C(CSc1nnnn1C1CCCC1)NCc1ccc2c(c1)OCO2 | -0.506
7 | COCCN(C(=O)CSc1ncn[nH]1)c1c(N)n(Cc2ccccc2)c(=O)[nH]c1=O | 24.4
8 | CC(C)[C@H](CN(N=O)[C@@H](Cc1ccccc1)CN(C)N=O)N(CCc1ccccc1)N=O.[Na+] | -0.676
9 | CN1C(=O)C(=Cc2c(OCc3cnc(Cl)s3)ccc3ccccc23)C(=O)N(C)C1=O | 9.91
10 | CN(C(=O)Cc1c[nH]c2ccccc12)C(C(=O)Nc1ccc2c(c1)OCO2)c1ccccc1 (centres unmarked) | -3.18
11 | Cc1ccc(NC(=O)CSCC(=O)Nc2nnc(C)s2)cc1 | 5.54
12 | COc1ccc(C2(C(N)=O)CCCCC2)cc1OC | 12.4
13 | CCCCNCc1ccc(OCc2ccc(Cl)nc2)c(OC)c1.Cl | -32.7
14 | Cc1ccc(C(=O)c2cc(C)sc2NC(=O)CN2CCN(C(=O)c3ccco3)CC2)cc1 | -11.7
15 | CCN1/C(=C2\C(=O)N(C)C(=S)N2C)C=Cc2cc(C)ccc21 | -33.4
16 | Cc1ccccc1NC(=O)c1cccc(NC(=O)c2ccco2)c1 | 3.64
17 | COc1ccc(-c2sc(C(=O)c3ccc(Cl)cc3Cl)cc2CC(=O)O)cc1 | 9.99
18 | Cc1ccc2c(c1)C1CN(C)CCC1N2S(=O)(=O)c1ccccc1F (centres unmarked) | -32.4
19 | CC(=O)N1CCN(C(=O)CCc2nc3sc4c(c3c(=O)[nH]2)CCCC4)CC1 | 5.61
20 | CC(=O)NN1C(=O)c2ccccc2NC1c1cccnc1 (centres unmarked) | 28.3
21 | N#CCC(=O)c1sccc1-n1cccc1 | 16
22 | COCCn1c(C)cc(C(=O)COC(=O)c2ccc(Br)o2)c1C | -36.2

Row | Compound | hERG current change (%, negative = inhibition) at 10uM [%]
23 | O=C1Nc2ncccc2OC1CCO (centres unmarked) | 20.8
24 | COc1ccc(CNC(=S)N2CCN(Cc3ccccc3)CC2)cc1 | -22.4
25 | COc1ccc2nc(C)cc(Sc3nc4ccccc4s3)c2c1 | 15.1
26 | COc1ccc(N2CCC(CNC(=S)Nc3c(C)cccc3C)C2)cc1 (centres unmarked) | -4.72
27 | CC(C)(C)c1ccc(C(=O)NNC(=O)CCc2ccccc2)cc1 | 7.16
28 | Cc1nc(SCC(=O)NC(C)(C)C)c2c(-c3cccs3)csc2n1 | -33.1
29 | Fc1ccccc1Nc1n[nH]c(=S)s1 | 18.3
30 | CCOCC(=O)Nc1nc2c(s1)C(=O)CC(C)(C)C2 | 1.56
31 | COc1ccccc1NC(=O)Cc1csc(NC(=O)c2ccccc2)n1 | 7.93
32 | CCNc1cc(N2CCCC2)ccc1[N+](=O)[O-] | 0.922
33 | CC(C)c1nnc(SCC(=O)Nc2ccc3c(c2)OCCO3)n1C | 3.37
34 | Cc1[nH]n(-c2ccccc2)c(=O)c1C=NC1CCCCC1 | -10.5
35 | O=C(CN1CCN(S(=O)(=O)N2CCCCC2)CC1)Nc1ccc(Cl)c(Cl)c1 | -28.2
36 | O=C(N/N=C/c1coc2ccccc2c1=O)c1cc2ccccc2o1 | 2.41
37 | C/C(=N\NC(=O)CCc1ccccc1)c1ccc(Br)cc1 | 11
38 | COC(=O)CN1C(=O)N/C(=C/c2ccccc2OC)C1=O | -0.466
39 | CCOC(=O)c1c(CSc2ccccc2)n(C)c2cc(Br)c(OC)c(O)c12 | 16.2
40 | CCOc1ccc(S(=O)(=O)N2CCc3cc(OC)c(OC)cc3C2)cc1 | -29.1
41 | Cc1ccc(NC(=O)c2ccccc2)cc1 | 3.32
42 | O=C(CN1C(=O)NC2(CCc3ccccc32)C1=O)Nc1ccc(N2CCOCC2)cc1 (centres unmarked) | 3.09
43 | Cc1ccc(S(=O)(=O)c2nc(S(C)(=O)=O)sc2N2CCC(C)CC2)cc1 | 9.53
44 | CC(=O)Nc1ccc(NC(=O)C2CC(=O)N(c3ccc(Cl)cc3)C2)cc1 (centres unmarked) | -0.124
